Results on 60 compounds are retold here after the supplement of paper PMC9446081.

The campaign covered roughly 39,000 compounds. About 220 (0.56%) showed activity. Some of the results follow.
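Note: static incubation at 37 °C against the wild-type strain, values averaged over two biological replicates.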

The experiment deals with Escherichia coli K-12 BW25113. As to the kind of experiment: relative growth (OD600 normalised to plate interquartile mean) (fraction); higher = less growth inhibition, active = 0.2 or less. To be noted: 50 µM; LB; incubation time: overnight (16-24 h).
Turning to `C[C@@H]1CN([C@H](C)CO)C(=O)c2cc(NC(=O)C3CC3)ccc2O[C@@H]1CN(C)S(=O)(=O)c1ccc(Cl)cc1`, the relative growth is inactive: 0.994.
To `C[C@H]1CN([C@@H](C)CO)C(=O)Cc2cc(NC(=O)CCCN(C)C)ccc2O[C@@H]1CN(C)S(=O)(=O)c1cccs1` belongs inactive: 1.02.
As to `C[C@@H]1CCCCO[C@@H](CN(C)S(C)(=O)=O)[C@@H](C)CN([C@@H](C)CO)C(=O)c2cc(NC(=O)CCCN(C)C)ccc2O1`, the relative growth is inactive: 0.99.
On to `COc1ccc(S(=O)(=O)Nc2ccc3c(c2)C(=O)N([C@@H](C)CO)C[C@H](C)[C@H](CN(C)S(=O)(=O)c2c(C)noc2C)O3)cc1`, for which the relative growth was inactive: 0.991.
With `C[C@@H]1CN([C@H](C)CO)C(=O)c2cccc(NS(=O)(=O)c3cn(C)cn3)c2O[C@H]1CN(C)C(=O)Nc1ccccc1`, the relative growth was inactive: 0.995.
As for `C[C@@H]1CN([C@H](C)CO)C(=O)c2cccc(NC(=O)Nc3cccc4ccccc34)c2O[C@@H]1CN(C)Cc1ccncc1`, the figure is inactive: 0.982; as for `O=C(C[C@@H]1CC[C@@H]2[C@H](COC[C@H](O)CN2C(=O)Nc2cccc(Cl)c2)O1)NCCCN1CCOCC1`, inactive: 0.93; as for `CC(C)COC(=O)CNc1n[nH]c(=O)[nH]c1=O`, inactive: 1.01.
To `COCC(=O)N1CC[C@]2(CCOC2)C1` belongs inactive: 0.957; to `C[C@H](CO)N1C[C@H](C)[C@H](CN(C)C(=O)CCC(F)(F)F)OCCCC[C@H](C)Oc2ccc(NC(=O)CCC(F)(F)F)cc2C1=O`, inactive: 1.01; to `C=CCOC(=O)[C@@H]1[C@H]2C(=O)O[C@H](c3ccccc3)[C@H](c3ccccc3)N2[C@H](c2ccc(OCCOC(=O)[C@@H]3C[C@@H]4C(=O)NCC(=O)N4[C@@H]3c3ccc(O)cc3)cc2)[C@@]12C(=O)Nc1ccccc12`, inactive: 1.07.
As for `C[C@H]1CCCCO[C@@H](CN(C)CC2CCCCC2)[C@@H](C)CN([C@@H](C)CO)C(=O)c2cc(NS(=O)(=O)c3ccccc3)ccc2O1`, the figure is inactive: 1.01; as for `CCS(=O)(=O)N1C[C@]2(C1)CN([C@H](CO)c1c2c2ccc(cc2n1C)OC)C(=O)Nc1cccc(c1)F`, inactive: 0.984.
For `Cn1cnc(S(=O)(=O)N2C[C@H](O)COC[C@@H]3O[C@@H](CC(=O)NCc4cccc(F)c4)CC[C@H]32)c1`, the relative growth was inactive: 1.01.
In the case of `C[C@@H]1CCCCO[C@H](CN(C)C(=O)C2CCCCC2)[C@H](C)CN([C@@H](C)CO)C(=O)c2cc(NC(=O)Nc3cccc4ccccc34)ccc2O1`, the relative growth is inactive: 1.03.
For the compound `COc1ccc(NC(=O)N(C)C[C@@H]2Oc3c(NC(=O)c4cc(C)nn4C)cccc3C(=O)N([C@@H](C)CO)C[C@H]2C)cc1`, the relative growth was inactive: 1.
To `Cc1noc(C)c1NC(=O)Nc1ccc2c(c1)C(=O)N([C@@H](C)CO)C[C@H](C)[C@@H](CN(C)C(=O)Nc1ccc(C(F)(F)F)cc1)OCCCC[C@H](C)O2` belongs inactive: 1.01.
As for `C[C@@]1(C2CC2)NC(=O)NC1=O`, the figure is inactive: 0.937.
As for `COc1ccc([C@@H]([C@H](Cc2ccccc2)OC(C)=O)N2C[C@@H](OC(C)=O)[C@@H]3[C@H]([C@@H]2Cc2ccccc2)N(C)O[C@H]3c2ccccc2)cc1`, the figure is inactive: 1.03.
As for `Cc1cc(C(=O)c2cc3cc(Cl)ccc3o2)ccc1Cl`, the relative growth was inactive: 0.97.
To `C[C@@H]1CN([C@H](C)CO)C(=O)Cc2cc(NC(=O)Nc3ccccc3)ccc2O[C@@H]1CN(C)S(C)(=O)=O` belongs inactive: 0.982; to `Cc1ccccc1-c1ccc2c(c1)O[C@H](CN(C)C(=O)Nc1ccc(C(F)(F)F)cc1)[C@@H](C)CN([C@H](C)CO)S2(=O)=O`, inactive: 0.991.
As to `COc1ccc(S(=O)(=O)N(C)C[C@H]2OCCCC[C@@H](C)Oc3ccc(NS(C)(=O)=O)cc3C(=O)N([C@H](C)CO)C[C@H]2C)cc1`, the relative growth was inactive: 0.987.
As for `COc1ccc(COC[C@]23N=C4SCc5ccccc5CN4[C@H](c4ccccc4O2)[C@H]3COC(=O)c2ccccc2)cc1`, the figure is inactive: 1.01; as for `C[C@@H]1CN([C@@H](C)CO)C(=O)c2cc(NC(=O)Nc3cccc4ccccc34)ccc2O[C@@H]1CN(C)C(=O)NC1CCCCC1`, inactive: 1; as for `C[C@H]1CN([C@@H](C)CO)C(=O)c2cc(NC(=O)CCC(F)(F)F)ccc2O[C@H]1CN(C)S(C)(=O)=O`, inactive: 0.989.
To `C[C@H](CO)N1C[C@H](C)[C@H](CN(C)C(=O)Nc2ccc(F)cc2)OCCCC[C@H](C)Oc2ccc(NS(=O)(=O)c3ccc(Cl)cc3)cc2C1=O` belongs inactive: 1.03; to `CN1C(=O)c2cc(NC(=O)Nc3ccccc3F)ccc2OC[C@H]2O[C@H](CC(=O)NCc3ccc(-c4ccccc4)cc3)CC[C@H]21`, inactive: 1.04.
In the case of `COc1ccc(S(=O)(=O)N(C)C[C@@H]2Oc3ccc(NS(C)(=O)=O)cc3C(=O)N([C@@H](C)CO)C[C@H]2C)cc1`, the relative growth was inactive: 1.01.
To `C[C@@H]1CN([C@@H](C)CO)S(=O)(=O)c2ccc(-c3ccc(F)cc3)cc2O[C@H]1CN(C)C(=O)C1CCOCC1` belongs inactive: 1.
On to `C[C@@H]1CN([C@@H](C)CO)C(=O)c2cc(-c3cccnc3)cnc2O[C@H]1CN(C)C(=O)Nc1ccc2c(c1)OCO2`, for which the relative growth is inactive: 0.994.
As for `O=C(C[C@H]1CC[C@H]2[C@@H](COC[C@@H](O)CN2C(=O)c2ccncc2)O1)NCc1ccc(-c2ccccc2)cc1`, the figure is inactive: 1.01; as for `C[C@@H]1CN([C@@H](C)CO)C(=O)c2cccc(NC(=O)c3cnccn3)c2O[C@@H]1CN(C)CC1CCCCC1`, inactive: 0.994.
With `C(=N\c1cc(-c2ccccc2)nn1-c1ccccc1)/c1ccccc1`, the relative growth is inactive: 0.923.
To `Cc1noc(C)c1S(=O)(=O)N(C)C[C@@H]1Oc2ccc(NS(=O)(=O)c3cn(C)cn3)cc2CC(=O)N([C@H](C)CO)C[C@H]1C` belongs inactive: 1.02; to `COCC#Cc1cnc2c(c1)C(=O)N([C@@H](C)CO)C[C@@H](C)[C@H](CN(C)C(=O)c1ccc3c(c1)OCO3)O2`, inactive: 0.99.
To `Cc1noc(C)c1S(=O)(=O)Nc1cccc2c1O[C@H](CN(C)Cc1ccncc1)[C@H](C)CN([C@H](C)CO)C2=O` belongs inactive: 1.01; to `O=C(N[C@@H]1CC=CC[C@H](CC(=O)N(CCO)Cc2ccccc2)C(=O)N[C@@H](c2ccccc2)COC1=O)OCC1c2ccccc2-c2ccccc21`, inactive: 0.998; to `C[C@@H]1CN([C@@H](C)CO)C(=O)c2cc(NC(=O)c3ccncc3)ccc2O[C@H]1CN(C)Cc1ccc(C(=O)O)cc1`, inactive: 0.983.
For the compound `C[C@H](CO)N1C[C@H](C)[C@H](CN(C)S(=O)(=O)c2ccccc2)Oc2ncc(C#Cc3ccccc3F)cc2C1=O`, the relative growth is inactive: 1.04.
For `C[C@@H]1CN([C@@H](C)CO)C(=O)c2cc(C3=CCCC3)cnc2O[C@H]1CN(C)S(=O)(=O)c1cn(C)cn1`, the relative growth is inactive: 0.997.
In the case of `Cc1ccc(S(=O)(=O)Nc2ccc3c(c2)C(=O)N([C@@H](C)CO)C[C@H](C)[C@@H](CN(C)S(=O)(=O)c2ccc(Cl)cc2)OCCCC[C@H](C)O3)cc1`, the relative growth is inactive: 1.02.
For the compound `C[C@@H]1CN([C@H](C)CO)S(=O)(=O)c2ccc(C#CC3CC3)cc2O[C@H]1CN(C)Cc1ccccc1F`, the relative growth was inactive: 1.06.
To `C[C@@H]1CCCCO[C@@H](CN(C)C(=O)c2ccccc2)[C@@H](C)CN([C@H](C)CO)C(=O)c2cc(NC(=O)Cc3ccccc3)ccc2O1` belongs inactive: 1.04; to `CCCCNc1ccc(C(=O)OCCOCCOCCOCCOCCOCCOCCOCCOCCOC)cc1`, inactive: 1.09; to `C[C@H](C(=O)N(C)C[C@H]1OCc2ccccc2-c2c(n(C)c3ccccc23)C(=O)N([C@@H](C)CO)C[C@@H]1C)c1ccccc1`, inactive: 1.01.
As for `Cc1noc(C)c1S(=O)(=O)N(C)C[C@H]1Oc2ccc(NC(=O)Cc3cn(C)c4ccccc34)cc2CC(=O)N([C@H](C)CO)C[C@@H]1C`, the figure is inactive: 1.01; as for `C[C@@H]1CN([C@@H](C)CO)C(=O)c2cc(NC(=O)Nc3ccc4c(c3)OCO4)ccc2O[C@H]1CN(C)S(C)(=O)=O`, inactive: 0.975; as for `COc1ccc(CN(C)C[C@@H]2OCCCC[C@H](C)Oc3ccc(NC(=O)Nc4ccccc4)cc3C(=O)N([C@H](C)CO)C[C@@H]2C)cc1`, inactive: 0.953.
To `N[C@@H](C(=O)O)C1=CCC=CC1` belongs inactive: 0.972; to `CC(C)(Oc1ccc(C(=O)c2ccc(Cl)cc2)cc1)C(=O)O`, inactive: 0.913.
As to `C[C@H]1[C@H](NC(=O)/C(=N\OC(C)(C)C(=O)O)c2csc(N)n2)C(=O)N1S(=O)(=O)O`, the relative growth is active: 0.0312.
On to `C[C@@H]1CN([C@@H](C)CO)C(=O)c2cccc(NC(=O)c3ccncc3)c2O[C@@H]1CN(C)S(=O)(=O)c1cn(C)cn1`, for which the relative growth is inactive: 1.
On to `Cc1noc(C)c1NC(=O)N(C)C[C@H]1Oc2c(NC(=O)Nc3ccc(C(F)(F)F)cc3)cccc2C(=O)N([C@H](C)CO)C[C@@H]1C`, for which the relative growth is inactive: 0.985.
To `Cn1cnc(S(=O)(=O)N2C[C@@H](O)COC[C@@H]3O[C@@H](CC(=O)NCc4cccc(F)c4)CC[C@H]32)c1` belongs inactive: 0.982; to `NC[C@@H](O)COc1ccc2c(c1)OCO2`, inactive: 0.972.
As for `C[C@H](CO)N1C[C@H](C)[C@H](CN(C)Cc2ccncc2)Oc2cc(C#CCN(C)C)ccc2S1(=O)=O`, the figure is inactive: 1.
As for `FC(F)Oc1cccc2cccnc12`, the figure is inactive: 0.965; as for `Cc1ccc(S(=O)(=O)Nc2ccc3c(c2)C(=O)N([C@@H](C)CO)C[C@H](C)[C@@H](CN(C)C(=O)Nc2c(C)noc2C)OCCCC[C@H](C)O3)cc1`, inactive: 1.01; as for `O=S1(=O)OC(c2ccc(O)cc2)(c2ccc(O)cc2)c2ccccc21`, inactive: 0.928.
